# Source: PMC4336329 (PLoS ONE, 2015)
# Among all 310,000 compounds or so, about 2,200 (0.71%) showed an effect of 50% or more. The effect is printed as a negative number. This is one part of the list.
# Biological target: human ether-à-go-go-related gene (hERG) potassium channel (human, UniProt Q12809)
# Test: primary screen, population patch clamp on CHO cells stably expressing hERG
# human ether-à-go-go-related gene (hERG) potassium channel, sequence (Q12809 whole entry, looked up): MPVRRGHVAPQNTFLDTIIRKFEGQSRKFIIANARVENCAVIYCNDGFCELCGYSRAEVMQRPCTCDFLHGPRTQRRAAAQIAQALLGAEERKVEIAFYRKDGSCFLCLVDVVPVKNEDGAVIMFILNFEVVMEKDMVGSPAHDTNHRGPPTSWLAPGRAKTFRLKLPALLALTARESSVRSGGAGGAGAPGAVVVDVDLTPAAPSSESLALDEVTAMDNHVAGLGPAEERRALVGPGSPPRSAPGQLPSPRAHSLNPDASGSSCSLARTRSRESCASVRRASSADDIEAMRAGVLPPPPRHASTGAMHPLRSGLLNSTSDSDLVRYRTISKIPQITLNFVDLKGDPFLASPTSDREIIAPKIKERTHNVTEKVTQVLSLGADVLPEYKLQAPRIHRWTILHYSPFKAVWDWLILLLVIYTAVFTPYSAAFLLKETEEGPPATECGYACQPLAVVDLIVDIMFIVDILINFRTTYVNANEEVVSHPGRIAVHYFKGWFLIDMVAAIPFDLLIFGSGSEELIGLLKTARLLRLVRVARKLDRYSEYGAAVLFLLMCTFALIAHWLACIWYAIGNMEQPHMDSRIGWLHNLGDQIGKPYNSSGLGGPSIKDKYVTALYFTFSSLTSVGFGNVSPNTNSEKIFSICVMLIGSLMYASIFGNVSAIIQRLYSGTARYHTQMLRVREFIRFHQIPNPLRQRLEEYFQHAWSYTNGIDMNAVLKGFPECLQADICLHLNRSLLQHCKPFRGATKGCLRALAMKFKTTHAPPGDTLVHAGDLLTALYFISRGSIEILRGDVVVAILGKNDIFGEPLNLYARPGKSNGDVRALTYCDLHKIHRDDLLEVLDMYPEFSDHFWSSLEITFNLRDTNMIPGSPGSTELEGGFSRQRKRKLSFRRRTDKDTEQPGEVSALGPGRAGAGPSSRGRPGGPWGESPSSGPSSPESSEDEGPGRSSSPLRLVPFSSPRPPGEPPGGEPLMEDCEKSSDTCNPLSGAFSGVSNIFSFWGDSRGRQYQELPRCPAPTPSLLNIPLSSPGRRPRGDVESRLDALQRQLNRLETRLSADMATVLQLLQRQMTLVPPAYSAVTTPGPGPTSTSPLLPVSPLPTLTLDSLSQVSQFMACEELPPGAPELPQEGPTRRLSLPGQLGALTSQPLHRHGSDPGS
row,SMILES,"hERG current change (%, negative = inhibition) at 1uM"
1,O=C(O)c1ccc2c(c1)ncn2C1CCCCCC1,9.43%
2,CCCCN(CCCC)CCCNC(=O)CC1Oc2ccc(C)cc2NC1=O (stereo not drawn),-21.2%
3,COC(=O)Cn1cnc2scc(-c3ccc(C)c(C)c3)c2c1=O,11.1%
4,C=CCn1c(SCc2c(C)noc2C)nc2cc(C(=O)O)ccc2c1=O,-5.69%
5,CCc1cc2c(SCC(=O)c3ccccc3)ncnc2s1,10.8%
6,Cc1ccc(CO/N=C\Cc2snc(Sc3ncc(C(F)(F)F)cc3Cl)c2C#N)cc1,11.6%
7,COc1cccc(-n2nnnc2SCC(=O)NCCc2ccc(OC)c(OC)c2)c1,7.68%
8,COc1ccc(C2(C(=O)N3CCCC3)CCOCC2)cc1OC,10.7%
9,Cc1ccc2c(c1)C(O)(CC(=O)c1ccc(C)s1)C(=O)N2 (stereo not drawn),14.1%
10,O=C1CCC(C(=O)Nc2cccc(Br)c2)N1 (stereo not drawn),6.95%
11,CS(=O)(=O)N1CCN(CCN2C(=O)c3cccc4cccc(c34)C2=O)CC1,9.23%
12,COc1ccc(CCNC(=O)CCS(=O)(=O)Cc2ccccc2C)cc1OC,12.2%
13,CC(C)CNS(=O)(=O)c1ccc(CCC(=O)N2CCN(Cc3ccc4c(c3)OCO4)CC2)cc1,-13.4%
14,COc1ccccc1S(=O)(=O)Cc1ccc(C(=O)NCC2CCCO2)o1 (stereo not drawn),6.05%
15,COc1ccc(OCCN2CCN(S(=O)(=O)c3ccccc3C(F)(F)F)CC2)cc1,5.15%
16,CN1CCN(C(=O)c2ccc(-n3cccc3)cc2)CC1,-5.17%
17,Cc1ccc(C(=O)O)cc1NCc1ccncc1,13.7%
18,CON(C)S(=O)(=O)c1cccc(C(=O)Oc2ccc(N(C)S(=O)(=O)c3ccccc3)cc2)c1,15.2%
19,NC(=S)Nc1c(Cl)cccc1Cl,14.1%

row,SMILES,"hERG current change (%, negative = inhibition) at 1uM"
1,Cc1ccc(S(=O)(=O)N2CCCCC2)cc1NC(=O)CSCC(=O)O,15.3%
2,CCOC(=O)CCn1c(=S)n(CCC(=O)OCC)c2ccccc21,-8.49%
3,O=C1/C(=C/c2cccnc2)SC(=S)N1NS(=O)(=O)c1ccccc1,11.5%
4,CNC(=O)CSc1nnc(-c2ccco2)n1-c1cccc(OC)c1,6.6%
5,CC(O)c1cccc(NC(=O)C2CCCCC2)c1 (stereo not drawn),23.7%
6,COc1ccc(CCNC(=O)c2cc3c(=O)n4ccccc4nc3n(C3CCCCC3)c2=N)cc1OC,-61.9%
7,COc1cc(OC)cc(C(=O)Nc2nc(CC(=O)NCc3ccccc3OC)cs2)c1,8.8%
8,COc1ccc(C(=O)NC2CCCCC2)cc1S(=O)(=O)N1CCCC1,0.624%
9,CC1C=CCC2C(=O)N(c3cccc(C(=O)N4CCN(c5ccc(F)cc5)CC4)c3)C(=O)C12 (stereo not drawn),2.03%
10,Cc1ccc(C(=O)NNS(=O)(=O)c2ccc(F)cc2)cc1,9.21%
11,Cc1ccc(NC(=O)CN2C(=O)COc3ccc(S(=O)(=O)N4CCCC4)cc32)cc1C,12.3%
12,CCOc1ccc2nc3c(cc2c1)CN(CCOC)C(=NC)S3.Cl,11.5%
13,Cc1cc(C)cc(N(CCC(=O)O)S(=O)(=O)c2ccc(Cl)cc2)c1,7.38%
14,CSc1ccccc1C(=O)Nc1cccc(N(C)S(C)(=O)=O)c1,7.96%
15,CC(C)(C)OC(=O)CN1C(=O)NC2(CCCc3ccccc32)C1=O (stereo not drawn),8.18%
16,CC(C)C(=O)Nc1ccc(-c2nc3cccnc3o2)cc1,16.5%
17,Cc1ccsc1C(=O)NCCc1c[nH]c2ccccc12,11.2%
18,Cc1cc(/C=C2\C(=O)NC(=O)N(c3cccc(F)c3)C2=O)c(C)n1-c1ccc(C(=O)O)c(Cl)c1,12.8%
19,Cc1ccc(C)c2c1cc(C)c1nnc(SCC(=O)N3CCCc4ccccc43)n12,0.287%

row,SMILES,"hERG current change (%, negative = inhibition) at 1uM"
1,CC1CCCCN1CCCNC(=O)C1CCN(c2nc3ccccc3o2)CC1 (stereo not drawn),14.5%
2,CCC(C)C1Nc2ccc(C(=O)NCc3ccc4c(c3)OCO4)cc2NC1=O (stereo not drawn),7.33%
3,CCCS(=O)(=O)NCCc1cc2c(OC)ccc(OC)c2[nH]c1=O,5.46%
4,C#CCNC(=O)c1cccn1-c1ncc(C(F)(F)F)cc1Cl,6.06%
5,Cc1ccc(CCNC(=O)C2CCN(S(=O)(=O)c3ccc4c(c3)NC(=O)C(C)S4)CC2)cc1 (stereo not drawn),13%
6,CCCCCN(C(=O)NC(=O)Nn1cnnc1)S(C)(=O)=O,5.49%
7,O=C1C2C3C=CC(CC3)C2C(=O)N1/N=C/c1c[nH]c2ccccc12 (stereo not drawn),14%
8,COc1ccc(CCC(=O)NCc2ccc3c(c2)OCO3)cc1,0.183%
9,CN1C(=O)/C(=C/c2ccccc2OCc2ccc(F)cc2)N(C)C1=S,10.6%
10,CC(NC(=O)Cc1ccc(Br)cc1)c1ccccc1 (stereo not drawn),11.7%
11,COc1ccc(CC(C(=O)Nc2cc(C)ccc2C)/C(N)=N/O)cc1 (stereo not drawn),12.8%
12,Cc1ccccc1-c1nc(CN2CCC(C(=O)NCC3CCCO3)CC2)c(C)o1 (stereo not drawn),-15%
13,Cc1ccc(N(C(=O)c2cnccn2)C(C(=O)NC2CCCCC2)c2ccc(O)cc2)cc1 (stereo not drawn),-0.364%
14,COc1ccccc1CNC(=O)COC(=O)COc1ccccc1F,-4.63%
15,O=C(O)CNC(=O)CC1S/C(=N/N=C2/NC(=O)CS2)NC1=O (stereo not drawn),17.2%
16,CCOc1ccc(-n2c(C)c(C(C)=O)c3cc(OCC(N)=O)ccc32)cc1,8.52%
17,O=C(CN1C(=O)C(=O)c2ccccc21)NC1CCCCC1,9.98%
18,Cn1cc(Br)c(-c2cccc(N3C(=O)CC(C)(C)CC3=O)c2)n1,9.52%
19,COC(=O)[C@H](Cc1ccccc1)NC(=O)N1CCCCC1,10.5%
